Source: paper PMC5342195
Results are given in words; binding and its absence hold for the method and conditions named. Binding seen in cells or lysates may run through a third protein. Some binding calls cover weakened binding; strength is not graded here.

Protein sequences, listed by entry. Tags and fused reporters are not part of them. Lines headed by an entry give the natural chain unless they say otherwise; changes in a name come on top.
UniProt Q9UJU2: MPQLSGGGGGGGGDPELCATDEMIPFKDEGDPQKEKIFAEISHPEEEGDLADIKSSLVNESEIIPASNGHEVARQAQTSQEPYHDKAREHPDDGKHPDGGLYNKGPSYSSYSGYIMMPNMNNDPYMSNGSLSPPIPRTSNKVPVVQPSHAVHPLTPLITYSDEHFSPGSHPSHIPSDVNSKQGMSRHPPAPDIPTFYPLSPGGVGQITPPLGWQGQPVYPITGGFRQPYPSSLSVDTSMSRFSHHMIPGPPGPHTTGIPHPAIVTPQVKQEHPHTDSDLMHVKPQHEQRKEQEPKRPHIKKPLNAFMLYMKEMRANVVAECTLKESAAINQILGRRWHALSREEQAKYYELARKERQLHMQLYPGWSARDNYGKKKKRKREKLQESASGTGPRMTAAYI
UniProt P35222: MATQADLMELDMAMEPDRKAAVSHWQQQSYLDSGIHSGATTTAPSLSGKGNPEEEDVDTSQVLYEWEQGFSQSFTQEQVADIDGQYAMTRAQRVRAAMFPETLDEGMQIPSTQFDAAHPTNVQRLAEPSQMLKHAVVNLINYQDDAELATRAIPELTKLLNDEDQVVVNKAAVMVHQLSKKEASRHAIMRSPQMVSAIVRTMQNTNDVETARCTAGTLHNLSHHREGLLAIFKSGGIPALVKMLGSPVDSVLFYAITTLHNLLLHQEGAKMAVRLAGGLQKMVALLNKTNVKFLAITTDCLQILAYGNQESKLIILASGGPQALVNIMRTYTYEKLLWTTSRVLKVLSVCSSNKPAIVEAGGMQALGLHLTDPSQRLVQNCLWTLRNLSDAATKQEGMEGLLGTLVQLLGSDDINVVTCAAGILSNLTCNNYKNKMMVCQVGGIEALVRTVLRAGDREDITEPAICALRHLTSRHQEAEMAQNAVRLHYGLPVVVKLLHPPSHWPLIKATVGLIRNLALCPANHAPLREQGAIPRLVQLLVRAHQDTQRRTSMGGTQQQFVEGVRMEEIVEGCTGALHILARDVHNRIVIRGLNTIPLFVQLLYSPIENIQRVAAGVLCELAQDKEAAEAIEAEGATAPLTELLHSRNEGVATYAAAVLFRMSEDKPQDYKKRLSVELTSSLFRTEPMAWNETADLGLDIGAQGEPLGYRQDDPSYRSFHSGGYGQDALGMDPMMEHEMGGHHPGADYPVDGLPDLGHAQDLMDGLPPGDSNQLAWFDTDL

Biological target: recombinant human LEF1-GST protein (human) (UniProt Q9UJU2)
Assay: pull-down; LEF1-GST on glutathione-Sepharose 4B beads incubated 3 h at 4°C with total cell lysate in RIPA (500 μg of total proteins) of Lu1205 cells transfected with HA-tagged β-catenin-NLS WT or mutants; washed five times; immunoblot; only the target purified

Row | Substance | binding
1 | HA-tagged β-catenin-NLS WT (from UniProt P35222 1-781) | binds
2 | HA-tagged β-catenin-NLS F660S (from UniProt P35222 1-781) | binds
3 | HA-tagged β-catenin-NLS K435E (from UniProt P35222 1-781) | no binding
4 | HA-tagged β-catenin-NLS K312E (from UniProt P35222 1-781) | no binding
5 | HA-tagged β-catenin-NLS F660A (from UniProt P35222 1-781) | binds
